Test results as given in PubChem BioAssay (NCI).
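Five compound concentrations were applied to cells in 96-well plates for 48 hours; endpoints were derived by simple linear interpolation of the resulting dose-response curve. At the GI50, growth is halved. TGI marks complete inhibition of growth.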

Test system: NCI-H322M lung
Assay: inhibition of tumour cell growth, NCI panel, 48 h

| SMILES | TGI [µM] | GI50 [µM] |
| --- | --- | --- |
| CCOC(=O)c1cc(I)c(-c2cc(C)no2)n1C | > 100 | – |
| COc1cc(O)c2c(=O)c3c(C)cccc3n(C)c2c1 | > 10 | – |
| Cc1c(-c2ccccc2)nn2cc(-c3ccccc3)nnc12 | 51.3 | – |
| Cc1cc(Nc2nc(-c3cccnc3)nc3ccccc23)n[nH]1 | > 92.1 | 2.74 |
| O=c1cc(NNc2cccc(F)c2)[nH]c(=O)[nH]1 | > 100 | – |
| COc1ccc(/C=C/C(=O)c2cc(C(C)(C)C)c(O)c(C(C)(C)C)c2)cc1OC | > 100 | – |
| CN(C)c1ccc(C=C2C(=O)N(c3ccccc3)N(c3ccccc3)C2=O)cc1 | > 100 | – |
| CCCCCCCCCCCCc1ccc(S(=O)(=O)O)cc1.[Zn+2] | > 100 | – |
| N[C@@H]1C(=O)N2C(C(=O)OC(c3ccccc3)c3ccccc3)=C(CCl)CS[C@H]12 | > 100 | > 100 |
| COc1ccc2[nH]c3c(c2c1)CCN[C@]31CS[C@@H]2c3c(OC(C)=O)c(C)c4c(c3[C@H](COC1=O)N1[C@@H]2[C@H]2c3c(cc(C)c(OC)c3O)C[C@@H]([C@@H]1O)N2C)OCO4 | 0.0591 | – |
| COc1cccc(-c2nn(-c3ccccc3)cc2-c2ccnc(NCCNC(=O)Nc3cccc(C(F)(F)F)c3)c2)c1 | 7.01 | 1.79 |
| Cc1cc(S(=O)(=O)/N=C/N(C)C)c(SC(=O)c2ccc(Cl)cc2)cc1Cl | > 100 | > 100 |
| CSc1cc(-c2ccccn2)nc(-c2ccccn2)c1 | 4.88 | – |
| O=C(O)C1CCCCC1c1c2ccc(=O)c(O)c-2oc2c(O)c(O)ccc12 (configuration not stated) | > 100 | – |
| O=C1c2ccccc2C(=O)c2sc(Nc3ccccc3C(F)(F)F)nc21 | 27.7 | – |
| CC(C)N1CCN(Cc2ccc3c(NNC(=O)c4ccccc4)nc4cc(F)ccc4n23)CC1 | 13.2 | 0.318 |
| CSCCCS/C1=C/CCCCCCCCCC1 | > 100 | – |
| COc1cc(CNc2cnc3cc(N)ccc3n2)cc(OC)c1OC | > 100 | – |
| NC1=NC(c2ccc(Cl)cc2)N(c2ccc(S(N)(=O)=O)cc2)C(N)=N1 (configuration not stated) | > 100 | – |
| O=S(OC12CC3CC(CC(C3)C1)C2)c1cc(Cl)cc(Cl)c1OCc1ccccc1 (configuration not stated) | > 100 | – |
| COC(OC)C1OCC(n2cc(F)c(=O)[nH]c2=O)C1O (configuration not stated) | > 100 | – |
| COC(=O)/C(=N/Nc1cccc(Cl)c1)C(C(=O)C(=O)Nc1cccc(Cl)c1C)c1nc2ccccc2nc1C (configuration not stated) | > 100 | – |
| O=C1C=CC(=C(c2ccc(O)cc2)c2ccc(O)cc2)C=C1 | 28.8 | – |
| COC12CCCN1c1ccn(Cc3ccccc3)c(=O)c1C2=O (configuration not stated) | > 100 | – |
| CCOP(=O)(OCC)C(c1ccccc1)N(C(=O)NC(F)(F)F)c1cccc(F)c1 (configuration not stated) | > 100 | – |

| SMILES | TGI [µM] | GI50 [µM] |
| --- | --- | --- |
| CCC(c1ccc(OC)cc1)C(CC)c1ccc(O)c(CN2CCN(C)CC2)c1 (configuration not stated) | 17.2 | 5.62 |
| COc1ccc(/C=C2\CCS(=O)(=O)c3ccccc3C2=O)cc1OC | > 100 | – |
| COc1ccc(-c2ccc(-c3ccc(C(=N)N)nc3)s2)cc1Cl | 3.04 | 1.67 |
| COc1cc([C@@H]2c3cc4c(cc3[C@@H](Nc3ccccc3C(=O)c3ccccc3)[C@H]3COC(=O)[C@H]23)OCO4)cc(OC)c1OC | > 100 | – |
| Oc1ccc(O)c(-c2cc(-c3ccc(Cl)cc3)nn2-c2ccccc2)c1 | 21.7 | 6.07 |
| CCCCCCCCCCCCCCCCNCCCN(C)CCCN | 30.5 | – |
| COc1cc(C2=NNC(=O)c3ccccc3N2c2nc(-c3cccs3)nc3ccc(Br)cc23)cc(OC)c1OC | > 100 | – |
| N#CC1CCCCOCCOCCOCCOCCOCCCCCC1=O (configuration not stated) | > 100 | – |
| CCn1c(SC(C)C(=O)c2c(C)n(C)n(-c3ccccc3)c2=O)nc2ccccc2c1=O (configuration not stated) | > 100 | – |
| CN(C)c1ccc(/C=C/c2ccc(/C=C/c3ccc(N(C)C)cc3)cc2)cc1 | > 100 | – |
| NC(=O)c1c([N+](=O)[O-])cc(C(F)(F)F)cc1[N+](=O)[O-] | > 100 | – |
| CSC1C(=O)Nc2ccc3ccccc3c21 (configuration not stated) | > 100 | – |
| COC(=O)C1C=CCON2CCc3c(n(C)c4ccccc34)C12 (configuration not stated) | > 100 | – |
| CCOC(=O)c1nc2ccccc2nc1Oc1ccc(C(=O)OC)cc1 | > 100 | – |
| CN(CCO)CCCC1COc2ccccc2O1 (configuration not stated) | > 100 | – |
| O=C(CCC(=O)Nc1ccc(Cl)c(Cl)c1)CC(=O)c1ccc(F)cc1 | > 100 | – |
| CC(C)(C)c1ccc(OC(=O)Nc2ccc(O)c(C(=O)O)c2)cc1 | > 100 | – |
| Cc1cn(CCCCCCC2=NCCCN2)c(=O)[nH]c1=O | > 100 | – |
| CCCCCCNC(=O)Oc1ccc(/C(=C(/C)Cc2ccc(OC)cc2)c2ccc(OCCCN(C)C)cc2)cc1 | 27.9 | 14.2 |
| CS(=O)(=O)NNS(=O)(=O)c1ccccc1 | > 100 | – |
| Nc1nc(N)c(C=Nc2ccc(Br)cc2)c(Nc2ccc(Br)cc2)n1 | 22.5 | 5.48 |
| CC1(C)O[C@@H](CCl)C[C@H](C#N)O1 | > 100 | – |
| NC(=O)c1ccccc1NC(=O)C(=O)Cc1nc2ccccc2[nH]c1=O | > 100 | – |
| Clc1ccc(-c2nnc(-c3cccc4ccccc34)o2)cc1Cl | > 100 | – |
| CNC(=S)N/N=C(\C(=N/NC(=S)NC)c1ccccn1)c1ccccn1 | > 100 | – |

| SMILES | TGI [µM] | GI50 [µM] |
| --- | --- | --- |
| CC1(C)C(CCO)CC1n1cc(I)c(=O)[nH]c1=O (configuration not stated) | > 100 | – |
| C[n+]1c(-c2ccc(/C=N/Nc3ccnc(N/N=C/c4ccc(-c5cn6ccsc6[n+]5C)cc4)n3)cc2)cn2ccsc21 | 93.2 | – |
| O=C1NC(=O)C(=Nc2cccc3c(=O)[nH][nH]c(=O)c23)C(c2nc3ccccc3s2)C1=O (configuration not stated) | > 100 | – |
| COC(=O)C1=C(c2ccc(OC)c(OC)c2)OC(c2cc(OC)c(OC)c(OC)c2)C1 (configuration not stated) | > 100 | – |
| CC1(C)C(=O)c2ccccc2OC1N1CCN(C2Oc3ccccc3C(=O)C2(C)C)CC1 (configuration not stated) | > 100 | – |
| CCCC(C)n1c(C)nc2c1C(=O)c1ccccc1C2=O (configuration not stated) | > 100 | – |
| C/C(=C\c1ccccc1)C(=O)NCc1ccc(C(=O)NCCc2ccccc2)cc1 | > 100 | – |
| Cc1ccc(-c2c3c(nn2-c2ccc(S(N)(=O)=O)cc2)-c2ccccc2C3)cc1 | 41.2 | 17.8 |
| O=c1[nH]c2ccccc2c(O)c1/C=N/C(=S)NCc1ccccc1 | > 100 | – |
| C#CC[N+](C)(CC#C)CC#C | > 100 | – |
| CCC/C=C1\CCC(CN(C)C)C1=O (configuration not stated) | > 57 | – |
| CC(=O)c1c(CN(C)c2ccccc2)n([O-])c2ccccc2[n+]1=O | > 100 | 32.9 |
| Cc1cn(C2CC(N)C(C(=O)NCC(=O)O)O2)c(=O)[nH]c1=O (configuration not stated) | > 100 | – |
| COC(=O)CCc1ccc2c(c1)C(=O)CC2 | > 100 | – |
| CC12CC3OC(=O)C1COC14OC5(C2C1=O)C(O)(CCC1C4CC2OC24CC=CC(=O)C14C)C(=O)OC35C (configuration not stated) | > 100 | – |
| O=C(NCCO)c1ccc([N+](=O)[O-])cc1 | > 100 | – |
| C[N+](C)(C)CC1CCC/C1=N/O (configuration not stated) | 3.5 | – |
| Fc1ccc(N=C/C=C/Nc2ccc(F)cc2)cc1 | 25.9 | – |
| CCN(CC)c1ccc(N=Nc2ccc([N+](=O)[O-])cc2OC(=O)/C=C/c2ccccc2)c(OC(=O)/C=C/c2ccccc2)c1 | 70.6 | – |
| C(=N\Nc1ccc(-c2nc3ccccc3[nH]2)cc1)/c1c(-c2ccc(Cc3ccccc3)cc2)[nH]c2ccccc12 | > 87.1 | – |
| COC1CC(OC2C(C)OC(OC3C(C)OC(OC4C(O)CC(O[C@H]5CC[C@@]6(C)C(=CC[C@]7(O)[C@@H]6C[C@@H](OC(C)=O)[C@@]6(C)[C@]7(O)CC[C@@]6(O)C(C)=O)C5)OC4C)CC3OC)CC2OC)OC(C)C1O (some centres not stated) | > 12.5 | – |
| C=CC(OC(C)=O)c1ccc(OC(=O)C(C)C)c(OC)c1 (configuration not stated) | 12.2 | – |
| COc1ccc(/C=c2\sc3n(c2=O)C2C(NN=3)N(C)C(=O)N2C)cc1 (configuration not stated) | > 100 | 0.506 |
| CN=C(NC(=S)N(C)C)N(C)C | > 100 | – |
